# Measured values published in the supplement of paper PMC4604168 (melanoma cell lines).
# The other results are listed elsewhere or left out. Many values rest on one well or one pass, so single values are uncertain.
# Test system: G361
# Test: cell count relative to DMSO control; melanoma cells; higher = more viable cells
# Conditions: library dose: low library concentration; 72 h
# 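Further: cell number obtained by counting DAPI-stained nuclei in high-throughput microscope images with image analysis software, screen run in 1,536-well plates.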
row,Structure (SMILES),cell count [%]
1,"C[C@]12O[C@H](C[C@]1(O)CO)n1c3ccccc3c3c4c(c5c6ccccc6n2c5c31)CNC4=O [Lestaurtinib] + OCc1c[nH]c2ccccc12 [Indole-3-carbinol] (first compound 0.004 µM, partner dose 0.8 µM)",93.7
2,"C[C@]12O[C@H](C[C@]1(O)CO)n1c3ccccc3c3c4c(c5c6ccccc6n2c5c31)CNC4=O [Lestaurtinib] + CO[C@H]1C[C@@H]2CC[C@@H](C)[C@@](O)(O2)C(=O)C(=O)N2CCCC[C@H]2C(=O)O[C@H]([C@H](C)C[C@@H]2CC[C@@H](OCCO)[C@H](OC)C2)CC(=O)[C@H](C)/C=C(\C)[C@@H](O)[C@@H](OC)C(=O)[C@H](C)C[C@H](C)/C=C/C=C/C=C/1C [everolimus] (first compound 0.004 µM, partner dose 0.02 µM)",62
3,"C[C@]12O[C@H](C[C@]1(O)CO)n1c3ccccc3c3c4c(c5c6ccccc6n2c5c31)CNC4=O [Lestaurtinib] + Cn1c(=O)n(-c2ccc(C(C)(C)C#N)cc2)c2c3cc(-c4cnc5ccccc5c4)ccc3ncc21 [NVP-BEZ235] (first compound 0.004 µM, partner dose 0.004 µM)",90.5
4,"C[C@]12O[C@H](C[C@]1(O)CO)n1c3ccccc3c3c4c(c5c6ccccc6n2c5c31)CNC4=O [Lestaurtinib] + Nc1ccn([C@@H]2O[C@H](CO)[C@@H](O)C2(F)F)c(=O)n1 [gemcitabine] (first compound 0.004 µM, partner dose 0.0004 µM)",81.3
5,"Cn1cc(C2=C(c3cn(C4CCN(Cc5ccccn5)CC4)c4ccccc34)C(=O)NC2=O)c2ccccc21 [Enzastaurin] + CO[C@H]1C[C@@H]2CC[C@@H](C)[C@@](O)(O2)C(=O)C(=O)N2CCCC[C@H]2C(=O)O[C@H]([C@H](C)C[C@@H]2CC[C@@H](OCCO)[C@H](OC)C2)CC(=O)[C@H](C)/C=C(\C)[C@@H](O)[C@@H](OC)C(=O)[C@H](C)C[C@H](C)/C=C/C=C/C=C/1C [everolimus] (first compound 0.8 µM, partner dose 0.02 µM)",60.5
6,"C[C@]12O[C@H](C[C@]1(O)CO)n1c3ccccc3c3c4c(c5c6ccccc6n2c5c31)CNC4=O [Lestaurtinib] + Nc1cccc2c1CN(C1CCC(=O)NC1=O)C2=O [lenalidomide] (first compound 0.004 µM, partner dose 1 µM)",96.5
7,"C[C@]12O[C@H](C[C@]1(O)CO)n1c3ccccc3c3c4c(c5c6ccccc6n2c5c31)CNC4=O [Lestaurtinib] + CN(c1ncccc1CNc1nc(Nc2ccc3c(c2)CC(=O)N3)ncc1C(F)(F)F)S(C)(=O)=O [PF562271] (first compound 0.004 µM, partner dose 0.08 µM)",78
8,"C[C@]12O[C@H](C[C@]1(O)CO)n1c3ccccc3c3c4c(c5c6ccccc6n2c5c31)CNC4=O [Lestaurtinib] + CC(=O)O[C@@]12CO[C@@H]1C[C@H](O)[C@@]1(C)C(=O)[C@H](O)C3=C(C)[C@@H](OC(=O)[C@H](O)[C@@H](NC(=O)OC(C)(C)C)c4ccccc4)C[C@@](O)([C@@H](OC(=O)c4ccccc4)[C@H]21)C3(C)C [Docetaxel] (first compound 0.004 µM, partner dose 0.0001 µM)",47.2
9,"C[As](C)SC[C@H](NC(=O)CC[C@H](N)C(=O)O)C(=O)NCC(=O)O [Darinaparsin] + O=C(Nc1ccccc1)c1cc([N+](=O)[O-])ccc1Cl [GW9662] (first compound 0.4 µM, partner dose 2 µM)",104
10,"C[As](C)SC[C@H](NC(=O)CC[C@H](N)C(=O)O)C(=O)NCC(=O)O [Darinaparsin] + Cc1cc(SCc2sc(-c3ccc(C(F)(F)F)c(F)c3)nc2C)ccc1OCC(=O)O [GW0742] (first compound 0.4 µM, partner dose 2 µM)",108
11,"C[C@]12O[C@H](C[C@]1(O)CO)n1c3ccccc3c3c4c(c5c6ccccc6n2c5c31)CNC4=O [Lestaurtinib] + CCCS(=O)(=O)Nc1ccc(F)c(C(=O)c2c[nH]c3ncc(Cl)cc23)c1F [PLX4720] (first compound 0.004 µM, partner dose 0.08 µM)",109
12,"C[C@]12O[C@H](C[C@]1(O)CO)n1c3ccccc3c3c4c(c5c6ccccc6n2c5c31)CNC4=O [Lestaurtinib] + O=C(O)[C@@H]1[O][Sb](=[O])([O][Sb]2(=[O])[O][C@H]([C@H](O)CO)[C@H](O)[C@H](C(=O)O)[O]2)[O][C@H]([C@H](O)CO)[C@@H]1O [stibogluconate] (first compound 0.004 µM, partner dose 2 µM)",127
13,"C[C@]12O[C@H](C[C@]1(O)CO)n1c3ccccc3c3c4c(c5c6ccccc6n2c5c31)CNC4=O [Lestaurtinib] + O=C(O)c1ccc2c(c1)nc(Nc1cccc(Cl)c1)c1ccncc12 [CX4945] (first compound 0.004 µM, partner dose 0.4 µM)",102
14,"C[As](C)SC[C@H](NC(=O)CC[C@H](N)C(=O)O)C(=O)NCC(=O)O [Darinaparsin] + O=C1NC(=O)/C(=C/c2ccc(-c3ccc(F)cc3O)o2)S1 [AS252424] (first compound 0.4 µM, partner dose 1 µM)",96.2
15,"C[C@]12O[C@H](C[C@]1(O)CO)n1c3ccccc3c3c4c(c5c6ccccc6n2c5c31)CNC4=O [Lestaurtinib] + CC(C)C[C@H](NC(=O)[C@H](Cc1ccccc1)NC(=O)c1cnccn1)B(O)O [Bortezomib] (first compound 0.004 µM, partner dose 0.001 µM)",11.4
16,"C[C@]12O[C@H](C[C@]1(O)CO)n1c3ccccc3c3c4c(c5c6ccccc6n2c5c31)CNC4=O [Lestaurtinib] + N.N.[Cl][Pt][Cl] [cisplatin] (first compound 0.004 µM, partner dose 1.6 µM)",90.7
17,"C[C@]12O[C@H](C[C@]1(O)CO)n1c3ccccc3c3c4c(c5c6ccccc6n2c5c31)CNC4=O [Lestaurtinib] + NC1(c2ccc(-c3nc4ccn5c(=O)[nH]nc5c4cc3-c3ccccc3)cc2)CCC1 [MK2206] (first compound 0.004 µM, partner dose 0.4 µM)",92.4
18,"C[C@]12O[C@H](C[C@]1(O)CO)n1c3ccccc3c3c4c(c5c6ccccc6n2c5c31)CNC4=O [Lestaurtinib] + C[C@]1(O)C[C@@H](c2nc(-c3ccc4ccc(-c5ccccc5)nc4c3)c3c(N)nccn32)C1 [OSI906] (first compound 0.004 µM, partner dose 0.4 µM)",93.6
19,"C[C@]12O[C@H](C[C@]1(O)CO)n1c3ccccc3c3c4c(c5c6ccccc6n2c5c31)CNC4=O [Lestaurtinib] + C=C(c1ccc(C(=O)O)cc1)c1cc2c(cc1C)C(C)(C)CCC2(C)C [Bexarotene] (first compound 0.004 µM, partner dose 2 µM)",88.4
20,"C[C@]12O[C@H](C[C@]1(O)CO)n1c3ccccc3c3c4c(c5c6ccccc6n2c5c31)CNC4=O [Lestaurtinib] + CN1CCN(c2ccc3nc(-c4c(N)c5c(F)cccc5[nH]c4=O)[nH]c3c2)CC1 [Dovitinib] (first compound 0.004 µM, partner dose 0.1 µM)",93.3
21,"C[C@]12O[C@H](C[C@]1(O)CO)n1c3ccccc3c3c4c(c5c6ccccc6n2c5c31)CNC4=O [Lestaurtinib] + CCCCCCCCc1ccc(CCC(N)(CO)CO)cc1 [fingolimod] (first compound 0.004 µM, partner dose 2 µM)",97.1
22,"C[C@]12O[C@H](C[C@]1(O)CO)n1c3ccccc3c3c4c(c5c6ccccc6n2c5c31)CNC4=O [Lestaurtinib] + CNC(=O)c1cc(Oc2ccc(NC(=O)Nc3ccc(Cl)c(C(F)(F)F)c3)cc2)ccn1 [sorafenib] (first compound 0.004 µM, partner dose 0.4 µM)",101
23,"N.N.[Cl][Pt][Cl] [cisplatin] + CO[C@H]1C[C@@H]2CC[C@@H](C)[C@@](O)(O2)C(=O)C(=O)N2CCCC[C@H]2C(=O)O[C@H]([C@H](C)C[C@@H]2CC[C@@H](OCCO)[C@H](OC)C2)CC(=O)[C@H](C)/C=C(\C)[C@@H](O)[C@@H](OC)C(=O)[C@H](C)C[C@H](C)/C=C/C=C/C=C/1C [everolimus] (first compound 1.6 µM, partner dose 0.02 µM)",64
24,"C[C@]12O[C@H](C[C@]1(O)CO)n1c3ccccc3c3c4c(c5c6ccccc6n2c5c31)CNC4=O [Lestaurtinib] + C=CCNC1=C2C[C@@H](C)C[C@H](OC)[C@H](O)[C@@H](C)/C=C(\C)[C@H](OC(N)=O)[C@@H](OC)/C=C\C=C(/C)C(=O)NC(=CC1=O)C2=O [Tanespimycin] (first compound 0.004 µM, partner dose 0.002 µM)",101
25,"C[C@]12O[C@H](C[C@]1(O)CO)n1c3ccccc3c3c4c(c5c6ccccc6n2c5c31)CNC4=O [Lestaurtinib] + COc1ccc(Cl)c(Nc2nc3ccccc3nc2NS(=O)(=O)c2cccc(NC(=O)C(C)(C)N)c2)c1 [XL147] (first compound 0.004 µM, partner dose 0.8 µM)",104
